From article PMC3794860, “An RNA-Binding Complex Involved in Ribosome Biogenesis Contains a Protein with Homology to tRNA CCA-Adding Enzyme” (PLoS Biology, 2013) come the findings set out here.

First the molecules themselves.
B1: Rrp7 (natural protein, S. cerevisiae, UniProt P25368 1-297, looked up)
chain: MGIEDISAMKNGFIVVPFKLPDHKALPKSQEASLHFMFAKRHQSSNSNESDCLFLVNLPLLSNIEHMKKFVGQLCGKYDTVSHVEELLYNDEFGLHEVDLSALTSDLMSSTDVNEKRYTPRNTALLKFVDAASINNCWNALKKYSNLHAKHPNELFEWTYTTPSFTTFVNFYKPLDIDYLKEDIHTHMAIFEQREAQAQEDVQSSIVDEDGFTLVVGKNTKSLNSIRKKILNKNPLSKHENKAKPISNIDKKAKKDFYRFQVRERKKQEINQLLSKFKEDQERIKVMKAKRKFNPYT
notes: N-terminal His6-tag followed by a PreScission site, cleaved with PreScission protease; source: High Five insect cells, recombinant baculovirus, coexpressed with Utp22, copurified (HisTrap, heparin, Superdex 200); not shown: His6, N-terminal, cleaved
B2: Rrp7 F38D (protein, UniProt P25368 1-297)
chain: MGIEDISAMKNGFIVVPFKLPDHKALPKSQEASLHFMDAKRHQSSNSNESDCLFLVNLPLLSNIEHMKKFVGQLCGKYDTVSHVEELLYNDEFGLHEVDLSALTSDLMSSTDVNEKRYTPRNTALLKFVDAASINNCWNALKKYSNLHAKHPNELFEWTYTTPSFTTFVNFYKPLDIDYLKEDIHTHMAIFEQREAQAQEDVQSSIVDEDGFTLVVGKNTKSLNSIRKKILNKNPLSKHENKAKPISNIDKKAKKDFYRFQVRERKKQEINQLLSKFKEDQERIKVMKAKRKFNPYT
B3: Rrp7 Δ1–156 (domain or fragment, UniProt P25368 157-297)
chain: EWTYTTPSFTTFVNFYKPLDIDYLKEDIHTHMAIFEQREAQAQEDVQSSIVDEDGFTLVVGKNTKSLNSIRKKILNKNPLSKHENKAKPISNIDKKAKKDFYRFQVRERKKQEINQLLSKFKEDQERIKVMKAKRKFNPYT
B4: Rrp7 Δ95–105 (removal of the β4–β5 loop) (protein, UniProt P25368)
chain: MGIEDISAMKNGFIVVPFKLPDHKALPKSQEASLHFMFAKRHQSSNSNESDCLFLVNLPLLSNIEHMKKFVGQLCGKYDTVSHVEELLYNDEFGDLMSSTDVNEKRYTPRNTALLKFVDAASINNCWNALKKYSNLHAKHPNELFEWTYTTPSFTTFVNFYKPLDIDYLKEDIHTHMAIFEQREAQAQEDVQSSIVDEDGFTLVVGKNTKSLNSIRKKILNKNPLSKHENKAKPISNIDKKAKKDFYRFQVRERKKQEINQLLSKFKEDQERIKVMKAKRKFNPYT
B5: Rrp7 Δ1–89 (domain or fragment, UniProt P25368 90-297)
chain: NDEFGLHEVDLSALTSDLMSSTDVNEKRYTPRNTALLKFVDAASINNCWNALKKYSNLHAKHPNELFEWTYTTPSFTTFVNFYKPLDIDYLKEDIHTHMAIFEQREAQAQEDVQSSIVDEDGFTLVVGKNTKSLNSIRKKILNKNPLSKHENKAKPISNIDKKAKKDFYRFQVRERKKQEINQLLSKFKEDQERIKVMKAKRKFNPYT
B6: Rrp7 Δ163–188 (deletion of the linker region) (protein, UniProt P25368)
chain: MGIEDISAMKNGFIVVPFKLPDHKALPKSQEASLHFMFAKRHQSSNSNESDCLFLVNLPLLSNIEHMKKFVGQLCGKYDTVSHVEELLYNDEFGLHEVDLSALTSDLMSSTDVNEKRYTPRNTALLKFVDAASINNCWNALKKYSNLHAKHPNELFEWTYTTAIFEQREAQAQEDVQSSIVDEDGFTLVVGKNTKSLNSIRKKILNKNPLSKHENKAKPISNIDKKAKKDFYRFQVRERKKQEINQLLSKFKEDQERIKVMKAKRKFNPYT
B7: Rrp7 CTD deletion mutant (Δ190–297) (domain or fragment, UniProt P25368 1-189)
chain: MGIEDISAMKNGFIVVPFKLPDHKALPKSQEASLHFMFAKRHQSSNSNESDCLFLVNLPLLSNIEHMKKFVGQLCGKYDTVSHVEELLYNDEFGLHEVDLSALTSDLMSSTDVNEKRYTPRNTALLKFVDAASINNCWNALKKYSNLHAKHPNELFEWTYTTPSFTTFVNFYKPLDIDYLKEDIHTHMA
B8: Rrp7 CTD alone (Δ1–190) (domain or fragment, UniProt P25368 191-297)
chain: FEQREAQAQEDVQSSIVDEDGFTLVVGKNTKSLNSIRKKILNKNPLSKHENKAKPISNIDKKAKKDFYRFQVRERKKQEINQLLSKFKEDQERIKVMKAKRKFNPYT

Results are given in words; binding and its absence hold for the method and conditions named. Some binding calls cover weakened binding; strength is not graded here. Sequences can lack the tags named with a protein.

The assay addresses T1, Utp22 fused to GAL4 DNA-binding domain (S. cerevisiae) (UniProt P53254).
T1 sequence: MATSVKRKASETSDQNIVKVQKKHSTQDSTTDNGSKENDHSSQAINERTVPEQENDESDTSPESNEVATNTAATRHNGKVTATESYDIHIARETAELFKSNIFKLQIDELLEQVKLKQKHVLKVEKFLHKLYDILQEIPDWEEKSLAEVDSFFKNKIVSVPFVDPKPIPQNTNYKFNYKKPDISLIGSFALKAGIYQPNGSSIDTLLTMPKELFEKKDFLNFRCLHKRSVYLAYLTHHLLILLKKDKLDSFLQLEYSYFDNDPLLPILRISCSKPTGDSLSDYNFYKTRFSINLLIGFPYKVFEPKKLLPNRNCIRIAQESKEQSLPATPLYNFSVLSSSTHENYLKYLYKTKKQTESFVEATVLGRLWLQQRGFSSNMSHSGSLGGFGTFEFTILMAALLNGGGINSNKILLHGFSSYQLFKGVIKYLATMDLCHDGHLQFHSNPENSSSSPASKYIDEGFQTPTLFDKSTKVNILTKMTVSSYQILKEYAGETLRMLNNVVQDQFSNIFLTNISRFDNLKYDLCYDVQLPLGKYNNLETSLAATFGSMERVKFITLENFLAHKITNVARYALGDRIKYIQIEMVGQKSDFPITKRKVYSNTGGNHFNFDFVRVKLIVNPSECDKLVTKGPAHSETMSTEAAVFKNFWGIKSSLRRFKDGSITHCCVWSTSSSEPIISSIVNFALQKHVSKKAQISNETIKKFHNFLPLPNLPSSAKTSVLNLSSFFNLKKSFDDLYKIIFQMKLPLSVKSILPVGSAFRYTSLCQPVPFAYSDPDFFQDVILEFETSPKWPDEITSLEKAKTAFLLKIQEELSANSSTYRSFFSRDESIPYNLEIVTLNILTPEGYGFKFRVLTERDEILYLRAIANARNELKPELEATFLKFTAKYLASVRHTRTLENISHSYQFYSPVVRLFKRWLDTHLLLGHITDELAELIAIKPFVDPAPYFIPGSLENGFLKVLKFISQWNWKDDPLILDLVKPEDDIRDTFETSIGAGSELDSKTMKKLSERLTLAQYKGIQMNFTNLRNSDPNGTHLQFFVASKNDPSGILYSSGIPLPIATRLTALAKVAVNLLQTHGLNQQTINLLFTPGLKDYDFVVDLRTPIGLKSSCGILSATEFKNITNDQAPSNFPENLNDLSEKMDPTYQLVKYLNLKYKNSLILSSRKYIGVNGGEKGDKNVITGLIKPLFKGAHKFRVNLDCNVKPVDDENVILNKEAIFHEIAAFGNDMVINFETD
Kind of assay: two-hybrid; … GAL4 system, strain AH109; Utp22 on GAL4 BD as bait, Rrp7 and mutants on GAL4 AD as prey; growth on SC -Leu -Trp -His with 5 mM 3-AT (intermediate stringency) and SC -Leu -Trp -His -Ade (high stringency), 3 d at 30°C.
Consider B1, for which the binding result is reported as “binds”. Turning to B2, the binding result was “binds”. For B3 the value was “binds”; for B4, “binds”; for B5, “binds”. For B6 the value was “binds”. B7: the binding result is reported as “binds”.

As for B8, the binding result is recorded as “no binding”.
